These results are taken from the supplement of paper PMC9446081.

Molecules are shown by their SMILES. The campaign covered roughly 39,000 compounds. About 220 (0.56%) showed activity. The list shows a part of the results.
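Further: static incubation at 37 °C against the wild-type strain, values averaged over two biological replicates.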

This test relates to Escherichia coli K-12 BW25113. The test can be described thus: relative growth (OD600 normalised to plate interquartile mean) (fraction); higher = less growth inhibition, active = 0.2 or less. To be noted: 50 µM; LB; incubation time: overnight (16-24 h).
Take `O=C(CSc1nnc[nH]1)C1CC1`: the relative growth is inactive: 0.94.
For `COCC(=O)N(C)C[C@H]1Oc2cc(C#CCN(C)C)ccc2S(=O)(=O)N([C@H](C)CO)C[C@H]1C`, the relative growth was inactive: 1.01.
The same measure for `COc1ccc(CN(C)C[C@H]2OCCCC[C@H](C)Oc3ccc(NS(=O)(=O)c4cccs4)cc3C(=O)N([C@H](C)CO)C[C@@H]2C)cc1`: inactive: 0.994; for `Cc1cc(C(=O)Nc2cccc3c2O[C@H](CN(C)Cc2ccc(C(=O)O)cc2)[C@@H](C)CN([C@H](C)CO)C3=O)n(C)n1`: inactive: 0.984; for `Cc1ccc(S(=O)(=O)N(C)C[C@H]2Oc3ccc(NC(=O)C4CC4)cc3C(=O)N([C@H](C)CO)C[C@H]2C)cc1`: inactive: 1.03.
The same measure for `COc1ccc(S(=O)(=O)Nc2ccc3c(c2)CC(=O)N([C@H](C)CO)C[C@@H](C)[C@@H](CN(C)Cc2ccc(Cl)c(Cl)c2)O3)cc1`: inactive: 0.966.
Regarding `O=C(C[C@H]1CC[C@@H]2[C@H](COC[C@H](O)CN2S(=O)(=O)c2ccccc2)O1)NCCN1CCCCC1`, the relative growth is inactive: 0.989.
The same measure for `Cc1ccc(S(=O)(=O)N(C)C[C@H]2Oc3ccc(NS(=O)(=O)c4cccs4)cc3CC(=O)N([C@H](C)CO)C[C@H]2C)cc1`: inactive: 0.951; for `C[C@@H]1CCCCO[C@@H](CN(C)C(=O)NC2CCCCC2)[C@H](C)CN([C@@H](C)CO)C(=O)c2cc(NC(=O)Cc3ccccc3)ccc2O1`: inactive: 1.03; for `C[C@H](CO)N1C[C@H](C)[C@H](CN(C)C(=O)CN2CCOCC2)Oc2ncc(C3=CCCCC3)cc2C1=O`: inactive: 1.01.
To `CS(=O)(=O)Nc1ccccc1O` belongs inactive: 1.01; to `COc1ccc(S(=O)(=O)Nc2ccc3c(c2)C(=O)N([C@@H](C)CO)C[C@@H](C)[C@H](CN(C)Cc2ccc(C(=O)Nc4ccccc4N)cc2)OCCCC[C@@H](C)O3)cc1`, inactive: 0.973; to `C[C@@H]1CN([C@H](C)CO)C(=O)c2cc(NC(=O)Cn3cnnn3)ccc2O[C@H]1CN(C)C(=O)Nc1ccc(C(F)(F)F)cc1`, inactive: 1.
The same measure for `COc1cccc(S(=O)(=O)N(C)C[C@H]2Oc3ncc(C#CC(C)C)cc3C(=O)N([C@H](C)CO)C[C@@H]2C)c1`: inactive: 1.02; for `O=C(CN1CCOCC1)N[C@H]1CC[C@H](CCNC(=O)Nc2cc(F)ccc2F)O[C@H]1CO`: inactive: 1.02; for `CC(C)NC(=O)Nc1cccc2c1O[C@@H](CN(C)S(=O)(=O)c1cccs1)[C@@H](C)CN([C@H](C)CO)C2=O`: inactive: 0.996.
For `CC(=O)Nc1cc(C(C)C)c(C(C)C)cc1C(C)C`, the relative growth was inactive: 0.959.
To `O=C(C[C@H]1CC[C@@H]2[C@H](COC[C@H](O)CN2S(=O)(=O)c2cccc(F)c2)O1)NCc1ccncn1` belongs inactive: 0.994.
The same measure for `O=C(CN1CCOCC1)NCC[C@@H]1CC[C@@H](NS(=O)(=O)c2ccc(F)cc2)[C@@H](CO)O1`: inactive: 1.01; for `C[C@@H]1CN([C@H](C)CO)C(=O)c2c(c3ccccc3n2C)-c2ccccc2CO[C@H]1CN(C)Cc1ccc(-c2ccccc2)cc1`: inactive: 0.987; for `Cc1cc(C)c(C#N)c(=O)[nH]1`: inactive: 0.983.
As to `Cc1noc(C)c1S(=O)(=O)Nc1ccc2c(c1)C(=O)N([C@H](C)CO)C[C@H](C)[C@H](CN(C)S(C)(=O)=O)OCCCC[C@H](C)O2`, the relative growth is inactive: 0.98.
The same measure for `C[C@@H]1CCCCO[C@H](CN(C)CC2CCCCC2)[C@H](C)CN([C@@H](C)CO)C(=O)c2cc(NC(=O)CCCCCC(=O)Nc3ccccc3N)ccc2O1`: inactive: 1.02.
To `CO[C@@H]1CN(C)C(=O)c2cc(NS(=O)(=O)CC(F)(F)F)ccc2OC[C@H](C)N(Cc2ccccn2)C[C@@H]1C` belongs inactive: 1.02; to `C[C@@H]1NC(=O)[C@@H](N)CNC(=O)[C@H]([C@H]2CCN=C(N)N2)NC(=O)/C(=C\NC(N)=O)NC(=O)[C@H](CNC(=O)C[C@@H](N)CCCN)NC1=O`, inactive: 0.743; to `CCCC#Cc1ccc2c(c1)O[C@H](CN(C)S(=O)(=O)c1cccc(OC)c1)[C@@H](C)CN([C@H](C)CO)S2(=O)=O`, inactive: 1.05.
The same measure for `C[C@@H]1CN([C@@H](C)CO)C(=O)c2cccc(NC(=O)Nc3ccc(F)cc3)c2O[C@H]1CN(C)C(=O)Nc1ccc(C(F)(F)F)cc1`: inactive: 0.975.
Regarding `CCS(=O)(=O)N[C@@H]1CC[C@@H](CC(=O)NCC2CC2)O[C@H]1CO`, the relative growth is inactive: 1.01.
To `C[C@@H]1CCCCO[C@H](CN(C)C(=O)Nc2ccc(F)cc2)[C@@H](C)CN([C@H](C)CO)C(=O)c2cc(NC(=O)Nc3ccccc3)ccc2O1` belongs inactive: 0.956; to `C=CC(C)(O)CCC=C(C)CCC=C(C)C` (centres undefined), inactive: 0.898.
To `C[C@@H]1CCCCO[C@H](CN(C)Cc2ccc(C(=O)O)cc2)[C@@H](C)CN([C@H](C)CO)C(=O)c2cc(NC(=O)Nc3cccc4ccccc34)ccc2O1` belongs inactive: 1.02.
The same measure for `O=C(C[C@H]1C[C@@H]2c3cc(NC(=O)NC4CCCC4)ccc3O[C@@H]2[C@@H](CO)O1)NCc1ccc(Oc2ccccc2)cc1`: inactive: 1.03.
Consider `CC(C)CC#Cc1ccc2c(c1)O[C@H](CN(C)C(=O)c1cnccn1)[C@H](C)CN([C@H](C)CO)S2(=O)=O`, for which the relative growth was inactive: 0.983.
To `C[C@@H]1CCCCO[C@@H](CN(C)C(=O)Nc2ccc3c(c2)OCO3)[C@H](C)CN([C@H](C)CO)C(=O)c2cc(NS(=O)(=O)c3cccs3)ccc2O1` belongs inactive: 1; to `COc1cccc(S(=O)(=O)N2C[C@@H](O)COC[C@@H]3O[C@@H](CC(=O)NCCCN4CCOCC4)CC[C@H]32)c1`, inactive: 1.01.
In the case of `C[C@@H]1CCCCO[C@H](CN(C)C(=O)Cc2ccccc2)[C@H](C)CN([C@@H](C)CO)C(=O)c2cc(NC(=O)Nc3cccc4ccccc34)ccc2O1`, the relative growth is inactive: 1.01.
The same measure for `C[C@@H]1CCCCO[C@@H](CN(C)CC2CCCCC2)[C@@H](C)CN([C@@H](C)CO)C(=O)c2cc(NC(=O)c3ccccc3)ccc2O1`: inactive: 0.985; for `CN1C(=O)c2cc(NC(=O)C3CCOCC3)ccc2OC[C@@H]2O[C@@H](CC(=O)NCc3ccccc3F)CC[C@@H]21`: inactive: 0.992.
To `O=C(C[C@@H]1C=C[C@@H](NS(=O)(=O)c2ccccc2)[C@H](CO)O1)NCc1ccncn1` belongs inactive: 0.99.
For `C[C@@H]1CN([C@@H](C)CO)C(=O)Cc2cc(NS(=O)(=O)c3ccc(Cl)cc3)ccc2O[C@@H]1CN(C)C(=O)Nc1cccc2ccccc12`, the relative growth was inactive: 1.
The same measure for `C[C@H]1CN([C@@H](C)CO)C(=O)c2cccc(NC(=O)Nc3ccc(C(F)(F)F)cc3)c2O[C@@H]1CN(C)C(=O)Nc1cccc2ccccc12`: inactive: 0.782.
The same measure for `Cc1noc(C)c1S(=O)(=O)N(C)C[C@H]1Oc2ccc(NS(=O)(=O)c3cccs3)cc2CC(=O)N([C@@H](C)CO)C[C@H]1C`: inactive: 0.997; for `C[C@H]1CN([C@@H](C)CO)C(=O)c2cccc(NC(=O)NC3CCCCC3)c2O[C@H]1CN(C)S(C)(=O)=O`: inactive: 1.01.
Take `CC(C)(O)c1cn(-c2nonc2N)nn1`: the relative growth was inactive: 0.975.
For `C[C@H](CO)N1C[C@H](C)[C@@H](CN(C)C(=O)Nc2ccc(F)cc2)OCCCC[C@H](C)Oc2ccc(NC(=O)NC3CCCCC3)cc2C1=O`, the relative growth is inactive: 0.992.
To `CCCN1C[C@H](C)[C@@H](OC)CN(C)C(=O)c2ccc(NS(=O)(=O)c3cn(C)cn3)cc2OC[C@H]1C` belongs inactive: 0.982; to `O=C(C[C@@H]1CC[C@H]2[C@@H](COC[C@@H](O)CN2Cc2cccc(C(F)(F)F)c2)O1)NCCc1ccncc1`, inactive: 0.997; to `C[C@@H]1CCCCO[C@H](CN(C)Cc2ccc(Cl)c(Cl)c2)[C@@H](C)CN([C@@H](C)CO)C(=O)c2cc(NC(=O)Nc3ccc(F)cc3)ccc2O1`, inactive: 1.02.
For the molecule `C[C@H](CO)N1C[C@H](C)[C@H](CN(C)Cc2ccc(Oc3ccccc3)cc2)Oc2ccc(NS(=O)(=O)c3cccs3)cc2CC1=O`, the relative growth is inactive: 0.865.
To `C[C@H](CO)N1C[C@H](C)[C@@H](CN(C)C(=O)Nc2ccc(C(F)(F)F)cc2)Oc2c(NS(=O)(=O)c3ccc(Cl)cc3)cccc2C1=O` belongs inactive: 0.991; to `C[C@H](CO)N1C[C@H](C)[C@H](CN(C)S(=O)(=O)c2ccc(Cl)cc2)Oc2ccc(NC(=O)CCCN(C)C)cc2C1=O`, inactive: 0.989; to `COc1ccc(NC(=O)N(C)C[C@H]2OCCCC[C@H](C)Oc3ccc(NC(=O)Cc4ccccc4)cc3C(=O)N([C@@H](C)CO)C[C@@H]2C)cc1`, inactive: 0.993.
The same measure for `CC(C)NC(=O)N(C)C[C@H]1Oc2c(NS(=O)(=O)c3ccc(F)cc3)cccc2C(=O)N([C@H](C)CO)C[C@@H]1C`: inactive: 0.876; for `O=C(Nc1ccccc1)Nc1ccccc1`: inactive: 0.904; for `C[C@H](CO)N1C[C@H](C)[C@H](CN(C)S(C)(=O)=O)Oc2c(NC(=O)NC3CCCCC3)cccc2C1=O`: inactive: 0.97.
The same measure for `C[C@H]1CN([C@@H](C)CO)C(=O)c2cccc(NC(=O)c3ccncc3)c2O[C@@H]1CN(C)C(=O)Nc1ccc2c(c1)OCO2`: inactive: 0.997; for `COc1cccc(CN(C)C[C@@H]2OCc3ccccc3-c3c(n(C)c4ccccc34)C(=O)N([C@@H](C)CO)C[C@@H]2C)c1`: inactive: 0.975.
In the case of `CCCC#Cc1cnc2c(c1)C(=O)N([C@H](C)CO)C[C@H](C)[C@H](CN(C)C(=O)c1ccc3c(c1)OCO3)O2`, the relative growth was inactive: 0.989.
`C[C@H]1CCCCO[C@H](CN(C)Cc2ccc(C(F)(F)F)cc2)[C@@H](C)CN([C@@H](C)CO)C(=O)c2cc(NC(=O)c3ccccc3)ccc2O1`: the relative growth is inactive: 1.01.
